Source: PubChem BioAssay AID624417 (National Center for Advancing Translational Sciences (NCATS), 2012)
The campaign covered roughly 410,000 compounds. About 6,400 (1.6%) were called active. The inconclusive results got no clear call from the source; some entries with a clear call stand among them for comparison. Calls follow the shape of the dose curve; as a rule, active = well fitted inhibition curve with a large enough effect; inconclusive = small, poorly fitted or top-dose-only effect; inactive = no such curve, though single readings can be large or run the other way. Potencies of inconclusive entries are left out as doubtful fits.

Molecular target: Glucagon-like peptide 1 receptor (Homo sapiens) (UniProt P43220)
Assay: qHTS of GLP-1 Receptor Inverse Agonists (Inhibition Mode); also: nearly all actives have a fitted effect of over 55% in size
Conditions: HEK293 GLP-1R CRE-luciferase, luminescence, 24 h, GLP-1R form is constitutively active; activity change, negative = inhibition: at 38.3 µM (top of the series) unless noted
How it was run: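 Stable HEK293 clone (constitutively active GLP-1R + cAMP-response luciferase); 200 cells/uL plated, 12 h pre-culture, compound 24 hr, 37 deg C/5% CO2; detection reagent 12 min RT; luminescence.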
% is scaled to controls: 0 for no effect and ±100 for the full control effect; potency is read from the fitted curve at half-maximal effect; tags tell the direction and shape of the fitted curve.

Chain of UniProt P43220 (P43220 whole entry, looked up): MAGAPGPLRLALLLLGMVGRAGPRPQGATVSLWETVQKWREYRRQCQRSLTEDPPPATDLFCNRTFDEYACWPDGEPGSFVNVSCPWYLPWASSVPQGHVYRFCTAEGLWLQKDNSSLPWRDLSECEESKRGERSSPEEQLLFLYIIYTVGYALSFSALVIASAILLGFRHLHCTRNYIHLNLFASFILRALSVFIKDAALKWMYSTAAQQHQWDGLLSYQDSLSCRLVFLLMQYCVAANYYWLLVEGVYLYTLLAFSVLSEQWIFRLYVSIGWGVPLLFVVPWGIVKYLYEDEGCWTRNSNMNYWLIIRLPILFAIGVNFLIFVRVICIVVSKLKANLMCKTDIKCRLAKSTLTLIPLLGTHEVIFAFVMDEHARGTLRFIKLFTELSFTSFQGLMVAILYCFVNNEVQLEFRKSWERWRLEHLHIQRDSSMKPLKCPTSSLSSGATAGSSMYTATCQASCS

| SMILES | Potency | activity change, negative = inhibition |
| --- | --- | --- |
| O=C(NNC(=O)c1cc(-c2ccncc2)nc2ccccc12)c1ccccc1O | inconclusive [inhibitor, partial curve, poor fit] |  |
| CCc1cccc(CC)c1NC(=O)Cc1csc(C)n1 |  | inactive: 14.4% |
| Cc1cc2ncn(C3CC(O)C(CO)O3)c2cc1C (stereo not drawn) | inconclusive [inhibitor, partial curve, poor fit] |  |
| COc1cccc(C(=O)Nc2nc(-c3ccc(S(=O)(=O)N4CCOCC4)cc3)cs2)c1 | inconclusive [inhibitor, single point] |  |
| O=C1/C(=C/c2ccncc2)SC(=S)N1Cc1ccccc1 | inconclusive [inhibitor, partial curve, poor fit] |  |
| CCC(=O)N(Cc1cc2c(C)cc(C)cc2[nH]c1=O)C1CCCCC1 | inconclusive [inhibitor, partial curve, poor fit] |  |
| Cc1ccccc1OCCn1cc(C(=S)N2CCCC2)c2ccccc21 | inconclusive [inhibitor, partial curve, poor fit] |  |
| CC(C)Cc1nnc(NC(=O)Nc2ccccc2)s1 | inconclusive [inhibitor, partial curve, poor fit] |  |
| CC(C)N(Cc1ccccc1)C(=O)COC(=O)C1CCN(c2ccc(C(F)(F)F)cn2)CC1 | inconclusive [inhibitor, single point] |  |
| CCOC(=O)C1=C(C)N(C)C(=O)NC1c1cc2c(cc1Br)OCO2 (stereo not drawn) | inconclusive [inhibitor, partial curve, poor fit] |  |
| COC(=O)[C@]1(CC(C)C)N[C@H](c2ccc(-c3ccc(F)cc3)c(OC)c2)[C@@H]2C(=O)N(C)C(=O)[C@@H]21 | inconclusive [inhibitor, single point] |  |
| Cc1ccc(-n2c(=S)[nH]c3sc4c(c3c2=O)CCC4)cc1 |  | inactive: 18.5% |
| CC(C)CC(=O)Nc1sc2c(c1C#N)CC(C)(C)NC2(C)C | inconclusive [inhibitor, partial curve, poor fit] |  |
| Cc1ccc(CN2CCN(CC(=O)NC(C)CCc3ccccc3)C2=O)cc1 (stereo not drawn) | inconclusive [inhibitor, single point] |  |
| CCN1CCN(c2ccc(S(=O)(=O)N3CCOCC3)cc2NC(=O)c2ccc(Cl)cc2Cl)CC1 | inconclusive [inhibitor, single point] |  |
| CCc1[nH]nc(C(=O)N2CCCC(Nc3ccc(C(C)C)cc3)C2)c1C (stereo not drawn) | inconclusive [inhibitor, single point] |  |
| CN(c1ccccc1)S(=O)(=O)c1ccc(C(=O)N2CCc3ccccc3C2)cc1 | inconclusive [inhibitor, single point] |  |
| COC(=O)C1=NN(c2ccccc2)C2(S1)S/C(=C\c1ccccc1)C(=O)N2c1ccccc1 (stereo not drawn) | inconclusive [inhibitor, single point] |  |
| CC(C)S(=O)(=O)c1csc(NC(=O)Nc2ccc(Cl)cc2)c1Cl | inconclusive [inhibitor, partial curve, poor fit] |  |

| SMILES | Potency | activity change, negative = inhibition |
| --- | --- | --- |
| COc1ccccc1C1=NC(c2ccccc2)CN1c1ccccc1 (stereo not drawn) | inconclusive [inhibitor, partial curve, poor fit] |  |
| CC1(c2ccc(Cl)cc2Cl)NC(=O)N(CC(=O)NCCC2=CCCCC2)C1=O (stereo not drawn) | inconclusive [inhibitor, single point] |  |
| COc1cccc(CN2C(=O)Nc3ccccc3C(=O)N2C(C)(C)C)c1 | inconclusive [inhibitor, partial curve, poor fit] |  |
| CC(C)(C)c1ccc(C(=O)c2cn[nH]c2-c2ccccc2O)cc1 | inconclusive [inhibitor, single point] |  |
| O=C(COc1ccc(Br)cc1CO)Nc1ccc(S(=O)(=O)N2CCCC2)cc1 | inconclusive [inhibitor, single point] |  |
| O=C(Cn1nc(C(F)(F)F)c2c1CCCC2)Nc1ccc(F)c(Cl)c1 | inconclusive [inhibitor, partial curve, poor fit] |  |
| CCC(=O)N1Cc2cc(C(=O)NCC(F)(F)F)nc(-c3cccc(-c4cncnc4)c3)c2[C@@H]1CCO |  | inactive: -11.4% |
| COc1ccc(C2C(Oc3ccccc3)C(=O)N2c2ccc(C)c(C)c2)cc1OC (stereo not drawn) | inconclusive [inhibitor, partial curve, poor fit] |  |
| COc1ccc2nc(C)cc(Nc3ccc(N4CCN(C)CC4)cc3)c2c1 | active: 5.62 µM |  |
| COc1ccc(/C=C/C(=O)Nc2ccc(Cl)c(Cl)c2)cc1OC | active: 8.91 µM |  |
| O=C(Cn1c(=O)oc2cc(S(=O)(=O)NCc3ccccc3)ccc21)NCc1ccc(F)cc1 | inconclusive [inhibitor, single point] |  |
| COc1ccccc1C(CNC(=O)c1cccc(S(=O)(=O)Nc2ccc(F)cc2)c1)N(C)C (stereo not drawn) | inconclusive [inhibitor, single point] |  |
| CC1CCCCC1NCC(=O)Nc1ccccc1-c1ccccc1 (stereo not drawn) | active: 4.47 µM |  |
| CCOC(=O)c1ccc(NC(=O)CCc2nc(-c3ccc(Cl)cc3)no2)cc1 | inconclusive [inhibitor, partial curve, poor fit] |  |
| COc1cc(/C=N/N2CCN(C3c4ccccc4-c4ccccc43)CC2)ccc1O | inconclusive [inhibitor, full curve, poor fit] |  |
| Cc1ccc(Sc2ccc(/C=N/O)cc2[N+](=O)[O-])cc1 | inconclusive [inhibitor, partial curve, poor fit] |  |
| CN1CCc2c(OCC(=O)N3CCC(Cc4ccccc4)CC3)cccc2C1=O | inconclusive [inhibitor, partial curve, poor fit] |  |
| COC(=O)C1=CN(c2c(C)cc(C)cc2C)C(N)=C(C#N)C1c1ccccc1 (stereo not drawn) | inconclusive [inhibitor, single point] |  |
| O=C(c1ccc(F)cc1)C1CCN(Cc2ccc(F)cc2)CC1 | inconclusive [inhibitor, partial curve, poor fit] |  |
